Laboratory results reported in PMC4336329 (PLoS ONE, 2015).
Screen size: about 310,000 compounds; about 2,200 (0.71%) showed an effect of 50% or more. Effects have a minus sign here. Some of the results follow.

biological target: human ether-à-go-go-related gene (hERG) potassium channel (human, UniProt Q12809); test: primary screen, population patch clamp on CHO cells stably expressing hERG
Sequence (Q12809 whole entry, looked up): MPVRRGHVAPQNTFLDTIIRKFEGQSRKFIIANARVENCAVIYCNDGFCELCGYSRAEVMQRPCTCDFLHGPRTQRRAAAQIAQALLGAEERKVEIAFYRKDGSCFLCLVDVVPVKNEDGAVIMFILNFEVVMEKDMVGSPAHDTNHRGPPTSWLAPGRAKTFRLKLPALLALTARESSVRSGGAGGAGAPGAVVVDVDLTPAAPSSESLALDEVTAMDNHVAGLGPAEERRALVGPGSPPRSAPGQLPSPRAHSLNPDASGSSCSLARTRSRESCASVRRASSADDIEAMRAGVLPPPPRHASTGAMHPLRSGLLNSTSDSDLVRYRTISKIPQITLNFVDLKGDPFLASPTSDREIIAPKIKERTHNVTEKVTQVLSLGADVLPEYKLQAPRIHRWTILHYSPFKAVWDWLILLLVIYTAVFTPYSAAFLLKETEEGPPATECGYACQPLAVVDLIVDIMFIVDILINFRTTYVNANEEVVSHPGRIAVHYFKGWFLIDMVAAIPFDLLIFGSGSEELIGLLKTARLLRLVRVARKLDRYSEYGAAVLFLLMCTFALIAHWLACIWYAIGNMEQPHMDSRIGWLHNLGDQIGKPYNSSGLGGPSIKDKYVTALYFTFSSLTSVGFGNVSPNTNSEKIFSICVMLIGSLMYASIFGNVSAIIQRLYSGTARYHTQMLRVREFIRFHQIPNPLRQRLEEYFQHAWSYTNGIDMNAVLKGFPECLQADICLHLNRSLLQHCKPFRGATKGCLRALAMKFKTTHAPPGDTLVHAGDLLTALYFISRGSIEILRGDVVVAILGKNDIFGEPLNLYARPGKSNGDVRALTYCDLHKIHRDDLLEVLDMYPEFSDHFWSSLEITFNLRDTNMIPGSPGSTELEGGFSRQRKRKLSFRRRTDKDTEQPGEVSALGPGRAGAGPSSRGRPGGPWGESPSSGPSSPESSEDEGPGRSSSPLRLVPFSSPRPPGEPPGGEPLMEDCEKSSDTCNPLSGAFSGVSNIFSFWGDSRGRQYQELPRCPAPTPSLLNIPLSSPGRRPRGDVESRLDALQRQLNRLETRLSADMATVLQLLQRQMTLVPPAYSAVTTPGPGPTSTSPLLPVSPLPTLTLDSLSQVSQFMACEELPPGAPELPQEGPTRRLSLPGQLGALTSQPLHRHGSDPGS

SMILES	hERG current change (%, negative = inhibition) at 1uM
CCCCNC1=NCCS1	3.41%
CC1=C(C(=O)N2CCC3(CC2)OCCO3)C2(CCC(C)CC2)OC1=O (stereo not shown)	4.83%
CCSCCNC(=O)c1cncc(Br)c1	9.46%
COc1ccc(/C=C2\SC(N3CCc4ccccc4C3)=NC2=O)cc1	8.49%
CCN(c1ccccc1)S(=O)(=O)c1ccc(Cl)c(NC(=O)CN2CCCCCC2)c1.O=C(O)C(=O)O	11.2%
CN1CC(=O)N/C1=N\C(=O)Nc1ccc(O)cc1	16.6%
COc1cc(C(=S)N2CCCC2)ccc1OCC(N)=O	17.2%
COC(=O)NC1c2ccccc2Oc2ccc(C)cc21 (stereo not shown)	10.1%
O=C1CCCC2=C1C(c1ccc(O)c(O)c1)Nc1ccc3ccccc3c12 (stereo not shown)	13.4%
CC1=C(C(=O)Nc2ccccc2)C2(CCCCC2)C(C#N)=C(SCC(N)=O)N1	11.7%
Cc1cc(C(F)F)n2ncc(C(=O)N3CCCCC3)c2n1	13.9%
Cc1noc(C)c1COc1ccc(C(=O)Nc2ccccn2)cc1	7.52%
COc1ccc(CNC(=O)Cc2cccs2)cc1OC	9.49%
CCOC(=O)c1c(NC(=O)CSC2=NN3CCCC(=O)N=C3S2)sc2c1CCCCC2	12.7%
Cc1c(C(=O)N(Cc2ccccc2)C(C)C)cnn1-c1ccccc1	3.33%
COc1ccc(S(=O)(=O)NCC2CCCN(C(=O)c3ccccc3)C2)cc1 (stereo not shown)	18%
COc1ccc(NC(=S)NC(=O)c2ccccc2Cl)cc1	0.375%
O=C(Nc1cccnc1)c1ccccc1F	10.7%
COc1ccccc1/C=C/C(=O)Nc1ccc2c(c1)OCCO2	11.2%
COc1ccc(C(=O)COC(=O)c2sc(C)nc2C)cc1OC	12.7%
CN1C(=O)C2(C(C#N)=C(N)Oc3n[nH]c(-c4ccc(Cl)cc4)c32)c2ccccc21 (stereo not shown)	13.5%
CCn1c(CS(=O)Cc2ccc(Cl)cc2Cl)nnc1SCc1c(Cl)cccc1Cl (stereo not shown)	3.44%
Cc1c(C(=O)NNc2cc(=O)n(C)c(=O)n2C)cccc1[N+](=O)[O-]	14.4%

SMILES	hERG current change (%, negative = inhibition) at 1uM
CCOC(=O)N/N=C/c1cc(OC)c(O)c(OC)c1	21%
CCOC(=O)c1cc2sccc2n1CC(=O)Nc1ccc(OC)c(OC)c1	9.3%
CN(C)/C=N/C(=S)Nc1ccc(Cl)cc1Cl	10.1%
CN(C)c1ccc(NC(=O)C[n+]2ccccc2)cc1.[Cl-]	16.1%
Cc1ccccc1CN1CCC(n2nccc2NC(=O)c2cccnc2)CC1	4.68%
CCN(CC)c1ccc(C(=O)OCC(=O)Nc2cc(C)on2)cc1	8.47%
Cc1ccc(S(=O)(=O)NCC(c2ccccc2)N2CCCCC2)cc1 (stereo not shown)	7.82%
CN1/C(=C\C(=O)c2cccs2)Sc2ccccc21	13.8%
COCCCN(C(=S)NC(=O)C12CC3CC(CC(C3)C1)C2)c1c(N)n(Cc2ccccc2)c(=O)[nH]c1=O	13.8%
COc1c(C)cc(C(=O)C2CCCN(C(=O)Cn3nc(C)nc3C)C2)cc1C (stereo not shown)	8.01%
Cc1sc(NC(=O)C2CCCC2)c(C#N)c1C	17.8%
Cn1cc(C(=O)NCc2ccc(F)cc2)c(=O)c2cc(S(=O)(=O)N3CCCCC3)ccc21	3.42%
CCCc1c(O)nc(SC2CC(=O)N(c3cc(OC)ccc3OC)C2=O)[nH]c1=O (stereo not shown)	3.88%
COc1cc(CNC23CC4CC(CC(C4)C2)C3)ccc1OCc1ccccc1.Cl	1.77%
CC(=O)Oc1ccc(N2C(=O)C3C(C2=O)C2(C)C=CC3(C)O2)cc1 (stereo not shown)	0.436%
COc1ccccc1/C=C1\SC(=O)N(CC(=O)N(C)C2CCS(=O)(=O)C2)C1=O (stereo not shown)	28.8%
CC(/C=N/n1c(-c2ccco2)n[nH]c1=S)=C\c1ccco1	13.9%
CC1c2[nH]c3ccccc3c2CCN1C(=O)Nc1ccccc1 (stereo not shown)	-2.19%
Cc1cccc(NC(=O)Cn2cnc3c(oc4ccccc43)c2=O)c1	10.5%
CCOc1ccccc1NC(=O)c1nnn(CC(=O)Nc2ccc3c(c2)OCO3)c1N	11.6%
COc1ccccc1S(=O)(=O)Cc1ccc(C(=O)NCc2ccco2)o1	-0.9%
Cc1cccnc1NC(=O)c1ccc2c(c1)NC(=O)C(C)S2 (stereo not shown)	-6.53%
COC(=O)c1cc(C(=O)N(Cc2ccccc2)c2ccccn2)cc([N+](=O)[O-])c1	-10.1%

SMILES	hERG current change (%, negative = inhibition) at 1uM
CC(C)OCCCNc1nc2c([nH]1)c(=O)n(C)c(=O)n2C	6%
Cc1ccccc1NS(=O)(=O)c1ccc(C2CNC(=O)C2)cc1 (stereo not shown)	10.3%
Cc1ccccc1NC(c1cccc(Cl)c1)c1nnnn1C1CCCCC1 (stereo not shown)	10%
CC1=C(C(=O)NCc2ccco2)C2(CCC(C)CC2)OC1=O (stereo not shown)	15.6%
CC(=O)c1ccc(NC(=O)c2cc(S(=O)(=O)N3CCOCC3)ccc2C)cc1	12.6%
COCCN(C(=O)Cn1nnc2ccccc21)C(C(=O)NC1CCCCC1)c1ccc(OC)cc1OC (stereo not shown)	9.29%
CC1=NN(C(=O)c2ccc(Cn3cc([N+](=O)[O-])cn3)cc2)C(O)(C(F)(F)F)C1 (stereo not shown)	-1.45%
Cc1ccc2ccccc2c1Cn1c(-n2ccnc2)nc2c1c(=O)n(C)c(=O)n2C	8.35%
O=S(=O)(Nc1ccc(O)c2ccccc12)c1ccc(Br)cc1	8.2%
CC1=C(C(=O)Nc2ccccc2C(=O)NC2CCC(C)CC2)SCCO1 (stereo not shown)	14.6%
O=C(CNC(=O)c1cc2c(n(-c3ccccc3)c1=O)CCCC2=O)c1ccccc1	10.9%
Cc1ccc(CNC(=O)CCCN2C(=S)NC(C)(C)CC2C)cc1 (stereo not shown)	4.11%
CCO/C([O-])=N/c1sn[n+](C)c1C	7.98%
Cc1c(O)c(CN2CCCCC2)cc2c3c(c(=O)oc12)CCC3	4.76%
O=C(O)c1ccccc1-c1nc2ccccc2c(=O)[nH]1	4.68%
CN(CC(=O)Nc1cccc(F)c1)C(=O)Cc1n[nH]c(=O)c2ccccc12	14.1%
CC[C@H](CO)NCCN[C@H](CC)CO.Cl	15.6%
COc1cc(OC)cc(C(=O)NCCCN2CCOCC2)c1	9.25%
CC(C)(C)NC(=O)Cn1nnc(-c2ccccc2NC(=O)c2ccco2)n1	8.52%
Cc1c(C)n(C(=O)CSc2nccn2C)c2ccccc12	0.119%
Cc1ccc(NC(=O)COC(=O)CN2C(=O)NC3(CCCC3)C2=O)cc1F	13.6%
C=CCSc1nnc2c(n1)OC(c1ccco1)Nc1ccccc1-2 (stereo not shown)	10.6%
Cc1cc(C)cc(NC(=S)N2CCN(c3ccc(F)cc3)CC2)c1	-0.227%

SMILES	hERG current change (%, negative = inhibition) at 1uM
COc1cc(CN2CCC(N3CCC(C(=O)N4CCCC4)CC3)CC2)cc2c1OCO2	-1.93%
Cc1ccc(-c2nc(N=Nc3ccc(O)cc3)n[nH]2)cc1	10.3%
CCC(=O)N1CCN(c2nc(C)nc3sc(C)c(C)c23)CC1	-54%
COc1ccccc1OCCNC(=O)C(CCSC)NS(=O)(=O)c1ccccc1F (stereo not shown)	-3.2%
COCCNC(=O)C(c1ccccc1C)N(CCOC)C(=O)Cn1nnc2ccccc21 (stereo not shown)	5.21%
O=C(Nc1ccc(N2CCCC2)c(Cl)c1)c1cccs1	20.5%
COc1cc(NC(=O)c2cccs2)c(C(=O)OCC(=O)c2cc(C)n(-c3ccc(F)cc3)c2C)cc1OC	10.1%
COc1ccc(NC(=O)/C(C#N)=C/C=C/c2ccco2)cc1	10.9%
c1ccc(-n2c(SCc3nc(-c4cccs4)no3)nnc2-c2ccco2)cc1	6.91%
O=C(NCc1cccnc1)Nc1ccc(Br)cc1	6.55%
O=C(Nc1ccc2c(c1)C(=O)OC2)c1ccccc1Cl	15.4%
CNC(=S)NCCc1c[nH]c2ccc(OC)cc12	10.1%
COc1ccc2oc(=O)c(C(=O)OCC(=O)c3ccc([N+](=O)[O-])cc3)cc2c1	13.8%
COc1ccc(CN2C3CCC2CC(NC(=O)c2cccc(F)c2)C3)cc1 (stereo not shown)	-81.1%
COc1cc(C(=O)NCC2CCCN2S(=O)(=O)c2cccs2)cc(OC)c1OC (stereo not shown)	9.66%
CSC1=NCCN1C(=O)c1ccco1	17.8%
O=c1c2c3c(sc2n2cnnc2n1-c1ccccc1)N(Cc1ccccc1)CCC3	11.4%
CC1CCCC(=C\c2ccccc2)/C1=N/O (stereo not shown)	8.23%
COc1ccc(NC(=O)C2OC3OC(C)(C)OC3C3OC(C)(C)OC23)cc1 (stereo not shown)	0.824%
Cc1[nH]c2ccccc2c1/C=N/Nc1ccc(F)cc1F	9.46%
COCCCNC(=O)CC1C(=O)N(Cc2ccccc2)C(C)c2nc3ccccc3n21 (stereo not shown)	9.07%
O=C(CN1C(=O)NC2(CCCC2)C1=O)NCCc1ccc(Cl)cc1Cl	13.9%
